Experimental data taken from ChEMBL document CHEMBL4888484, “Replenishing the malaria drug discovery pipeline: Screening and hit evaluation of the MMV Hit Generation Library 1 (HGL1) against asexual blood stage Plasmodium falciparum ,using a nano luciferase reporter read-out” (2022).
The whole screen tested about 150,000 compounds, of which about 540 (0.36%) showed an effect of 50% or more. The list shows a part of the results.

Tested on: Plasmodium falciparum
Assay: Primary screen in NF54 nanoGlo assay, in single point, at 2uM, 72h; a lower Z score goes with more inhibition
Assay type: functional, Erythrocyte
Details: timepoint 72 hour

Going from CCC1CN(Cc2nc3ccc(OC)nc3[nH]2)CC1N1CCOCC1 (stereo not given) to COc1ccc(CN2CC[C@H](c3nc4cccnc4n3C)C2)cc1, the “% Inhibition” value falls from -1% to -2%.

First: C=C[C@H](C)NC(=O)N1CCN(c2cccc3[nH]c(=O)[nH]c23)CC1
Second: CC(=O)N1CCCn2nc(-c3ccc(F)cc3)cc2C1
The “% Inhibition” value of the first is higher: -14% for the first, -17% for the second.

First: O=C(Cc1ccccc1)Nc1c(C(=O)c2ccccc2)oc2ccccc12
Second: Cc1ccc(CN2c3ccccc3OC[C@@H]2CC(=O)NCc2ccc(Cl)cc2)cc1
The “% Inhibition” value of the first is higher: 3% for the first, -2% for the second.

First: Cc1ccc(S(=O)(=O)Nc2ccc(N3CCN(C(=O)c4ccc(Cl)cc4Cl)CC3)nc2)cc1
Second: COc1ccccc1NC(=O)Cn1c(=O)n(-c2ccc(C)cc2)c(=O)c2c1cc(C)n2C
The “% Inhibition” value of the first is higher: -2% for the first, -4% for the second.

First: Cc1ccc(-n2c(N3CCOCC3)nc3cc(C(=O)NCCc4ccccc4)ccc3c2=O)cc1C
Second: Cc1cnc(CC2CCN(C(=O)[C@H]3CCOC3)CC2)n1Cc1ccccc1
The “% Inhibition” value of the first is higher: -5% for the first, -9% for the second.

Going from c1ccc(C2(c3noc(CCc4cn[nH]c4)n3)CC2)cc1 to O=C(c1cc(-c2ccccc2)on1)N1CC[C@@]2(CCCN(CC3CC3)C2=O)C1, the “% Inhibition” value falls from -3% to -13%.

First: CC(C)C(=O)NC[C@H]1CCN(C(=O)c2csc3c2CCCC3)C[C@@H]1O
Second: CC(C)N1CCC(NC(=O)C(=O)c2ccc3c(c2)CCC3)CC1
The “% Inhibition” value of the first is lower: -6% for the first, 2% for the second.

First: CC1CC(CNC(=O)Nc2ccccc2N(C)C2CCCC2)CCO1 (stereo not given)
Second: CN(Cc1ccccc1Cl)C[C@H]1CCCCO1
The “% Inhibition” value of the first is lower: -13% for the first, 1% for the second.

First: CCn1nc(C)c2c1c(=O)n(Cc1ccc(F)cc1)c(=O)n2CC(=O)NC1CCCC1
Second: CCOCC(=O)Nc1ccc2c(c1)C(=O)N(C)c1cc(C)ccc1O2
The “% Inhibition” value of the first is lower: -20% for the first, 3% for the second.

Going from Cc1ccc(C)c(NC(=O)CC(=O)NCCCN2CCCC2)c1 to Cc1cnn([C@@H](C)CNS(=O)(=O)N2CCCC2)c1, the “% Inhibition” value rises from -4% to -3%.

Compared with CC[C@](C)(O)CN1CCN(S(=O)(=O)c2cc(C)sc2C)CC1, CC(=O)Nc1ccc(C)c(CC(C)(C)C)c1C is higher in “% Inhibition” value: 2% for the first, 4% for the second.

First: COc1ccc([C@H](C)NS(C)(=O)=O)cc1F
Second: Cc1cnn([C@@H](C)CNC(=O)c2cnccc2C)c1
The “% Inhibition” value of the first is lower: -5% for the first, -3% for the second.

Compared with c1snnc1CN[C@H]1CCCc2cn[nH]c21, CN(CCCc1n[nH]c(N)c1C#N)c1ccc2nnc(C3CC3)n2n1 is lower in “% Inhibition” value: 3% for the first, -4% for the second.

Compared with c1cc(-c2nccnc2N2CCCC2)n2nccc2c1, Cc1cccc2c(N3CCS(=O)(=O)CC3)ncnc12 is lower in “% Inhibition” value: -5% for the first, -7% for the second.

First: COC(=O)c1ncn(Cc2nnc(-c3ccc(Cl)cc3)o2)n1
Second: Cc1ccc(Cl)cc1NC(=O)N(C)CCc1noc(C(=O)NCc2ccc(Cl)cc2)n1
The “% Inhibition” value of the first is higher: -11% for the first, -15% for the second.

First: CC(C)(Oc1ccc(C2CC2(Cl)Cl)cc1)C(=O)NC1CCS(=O)(=O)C1 (stereo not given)
Second: CC1C(Nc2ccnc(C#N)c2)CC2CCC1N2C(=O)OC(C)(C)C (stereo not given)
The “% Inhibition” value of the first is higher: -9% for the first, -12% for the second.

First: O=C(c1ccc(-c2cncnc2)o1)N1CCOCC1
Second: c1cnn(Cc2ncnn2-c2ccc3c(c2)OCCO3)n1
The “% Inhibition” value of the first is lower: -14% for the first, -12% for the second.

First: CC(C)CC[C@@H](CCNCc1ccco1)c1ccco1
Second: Cc1ccc(CCNC(=O)N[C@@H](C)CCc2cccn2C)cn1
The “% Inhibition” value of the first is lower: -10% for the first, 0% for the second.

Compared with CN(C)C(=O)CC1CCCCC1NC(=O)OC(C)(C)C (stereo not given), O=C(O)c1cccc(NC(=O)[C@H]2CCCC[C@@H]2C(F)(F)F)c1 is higher in “% Inhibition” value: -12% for the first, 8% for the second.

Going from C=CCn1cccc(C(=O)N(C)[C@@H](C)C2CC2)c1=O to O=C(c1cccc(F)c1F)N1C[C@@H]2CN(CC3CCC3)C[C@]2(C(=O)O)C1, the “% Inhibition” value rises from -12% to -2%.

Going from Cc1nccc(N2CC[C@H]3[C@H](CCC(=O)N3CCc3cccs3)C2)n1 to Cc1nc(N2CCNC(=O)[C@@H]2CC2CCCCC2)ccc1C#N, the “% Inhibition” value rises from -18% to -9%.

Compared with CCC1(CNC(=O)c2cccc(OCc3noc(C)n3)c2)CCCC1, Cn1nccc1CNC(=O)NC1(Cc2ccccc2)CCCC1 is higher in “% Inhibition” value: -19% for the first, 0% for the second.

O=c1ccn2c(n1)O[C@H]1[C@H](OC3CCCCO3)[C@@H](COC3CCCCO3)O[C@H]12 (stereo not given in full) and Cn1ncnc1CCNC(=O)NC(C1CCCC1)C1CCCC1 are the same in “% Inhibition” value: 35% for the first, 35% for the second.

Compared with Cc1cc(C)nc(CN(C)C(=O)c2cn(C)c(C)cc2=O)c1, CCOc1cc(-c2c(C)c(-c3cnn(C)c3)nc(N)c2C#N)ccc1O is higher in “% Inhibition” value: -12% for the first, -10% for the second.

Compared with Cc1ccc(-c2ccc(F)cn2)c2cccnc12, Cc1cccc(C[C@H](C)Nc2ncnc3[nH]cnc23)n1 is higher in “% Inhibition” value: -2% for the first, 1% for the second.

Going from CCn1cc(C2OCCC2CNCc2csc(COC)n2)cn1 (stereo not given) to COCCn1cncc1CNc1nc(C)nc2ccsc12, the “% Inhibition” value rises from -9% to -8%.

Compared with O=C1OCCC1NC(c1ccccc1)C1CCC1 (stereo not given), CCOC(=O)[C@@]1(CCOc2ccccc2)CCCN(C2CCN(C)CC2)C1 is lower in “% Inhibition” value: -8% for the first, -11% for the second.

For Cc1nn(C)c(C)c1CN1CCC(CC2CC2)(c2noc(C3CCOCC3)n2)CC1, the “% Inhibition” value was -6%.

Compared with CCC1CN(Cc2nc3ccc(OC)nc3[nH]2)CC1N1CCOCC1 (stereo not given), COc1ccc(CN2CC[C@H](c3nc4cccnc4n3C)C2)cc1 is higher in Z score: 0.08 for the first, 0.21 for the second.

First: C=C[C@H](C)NC(=O)N1CCN(c2cccc3[nH]c(=O)[nH]c23)CC1
Second: CC(=O)N1CCCn2nc(-c3ccc(F)cc3)cc2C1
The Z score of the first is higher: 2.87 for the first, 1.52 for the second.

Compared with O=C(Cc1ccccc1)Nc1c(C(=O)c2ccccc2)oc2ccccc12, Cc1ccc(CN2c3ccccc3OC[C@@H]2CC(=O)NCc2ccc(Cl)cc2)cc1 is higher in Z score: -0.5 for the first, 0.31 for the second.

Compared with Cc1ccc(S(=O)(=O)Nc2ccc(N3CCN(C(=O)c4ccc(Cl)cc4Cl)CC3)nc2)cc1, COc1ccccc1NC(=O)Cn1c(=O)n(-c2ccc(C)cc2)c(=O)c2c1cc(C)n2C is higher in Z score: 0.2 for the first, 0.4 for the second.

First: Cc1ccc(-n2c(N3CCOCC3)nc3cc(C(=O)NCCc4ccccc4)ccc3c2=O)cc1C
Second: Cc1cnc(CC2CCN(C(=O)[C@H]3CCOC3)CC2)n1Cc1ccccc1
The Z score of the first is lower: 0.86 for the first, 1.28 for the second.

Going from c1ccc(C2(c3noc(CCc4cn[nH]c4)n3)CC2)cc1 to O=C(c1cc(-c2ccccc2)on1)N1CC[C@@]2(CCCN(CC3CC3)C2=O)C1, the Z score rises from 0.44 to 2.1.

Going from CC(C)C(=O)NC[C@H]1CCN(C(=O)c2csc3c2CCCC3)C[C@@H]1O to CC(C)N1CCC(NC(=O)C(=O)c2ccc3c(c2)CCC3)CC1, the Z score falls from 1.08 to -0.23.

First: CC1CC(CNC(=O)Nc2ccccc2N(C)C2CCCC2)CCO1 (stereo not given)
Second: CN(Cc1ccccc1Cl)C[C@H]1CCCCO1
The Z score of the first is higher: 1.21 for the first, -0.15 for the second.

First: CCn1nc(C)c2c1c(=O)n(Cc1ccc(F)cc1)c(=O)n2CC(=O)NC1CCCC1
Second: CCOCC(=O)Nc1ccc2c(c1)C(=O)N(C)c1cc(C)ccc1O2
The Z score of the first is higher: 1.97 for the first, -0.35 for the second.

First: Cc1ccc(C)c(NC(=O)CC(=O)NCCCN2CCCC2)c1
Second: Cc1cnn([C@@H](C)CNS(=O)(=O)N2CCCC2)c1
The Z score of the first is lower: 0.44 for the first, 0.45 for the second.

First: CC[C@](C)(O)CN1CCN(S(=O)(=O)c2cc(C)sc2C)CC1
Second: CC(=O)Nc1ccc(C)c(CC(C)(C)C)c1C
The Z score of the first is higher: -0.34 for the first, -0.47 for the second.

Compared with COc1ccc([C@H](C)NS(C)(=O)=O)cc1F, Cc1cnn([C@@H](C)CNC(=O)c2cnccc2C)c1 is lower in Z score: 0.98 for the first, 0.57 for the second.

Going from c1snnc1CN[C@H]1CCCc2cn[nH]c21 to CN(CCCc1n[nH]c(N)c1C#N)c1ccc2nnc(C3CC3)n2n1, the Z score rises from -0.65 to 0.59.

First: c1cc(-c2nccnc2N2CCCC2)n2nccc2c1
Second: Cc1cccc2c(N3CCS(=O)(=O)CC3)ncnc12
The Z score of the first is higher: 0.96 for the first, 0.59 for the second.

First: COC(=O)c1ncn(Cc2nnc(-c3ccc(Cl)cc3)o2)n1
Second: Cc1ccc(Cl)cc1NC(=O)N(C)CCc1noc(C(=O)NCc2ccc(Cl)cc2)n1
The Z score of the first is higher: 1.94 for the first, 1.35 for the second.

First: CC(C)(Oc1ccc(C2CC2(Cl)Cl)cc1)C(=O)NC1CCS(=O)(=O)C1 (stereo not given)
Second: CC1C(Nc2ccnc(C#N)c2)CC2CCC1N2C(=O)OC(C)(C)C (stereo not given)
The Z score of the first is lower: 0.96 for the first, 1.33 for the second.

Going from O=C(c1ccc(-c2cncnc2)o1)N1CCOCC1 to c1cnn(Cc2ncnn2-c2ccc3c(c2)OCCO3)n1, the Z score rises from 1.26 to 2.04.

Compared with CC(C)CC[C@@H](CCNCc1ccco1)c1ccco1, Cc1ccc(CCNC(=O)N[C@@H](C)CCc2cccn2C)cn1 is lower in Z score: 1.33 for the first, 0.07 for the second.

Going from CN(C)C(=O)CC1CCCCC1NC(=O)OC(C)(C)C (stereo not given) to O=C(O)c1cccc(NC(=O)[C@H]2CCCC[C@@H]2C(F)(F)F)c1, the Z score falls from 1.23 to -1.

First: C=CCn1cccc(C(=O)N(C)[C@@H](C)C2CC2)c1=O
Second: O=C(c1cccc(F)c1F)N1C[C@@H]2CN(CC3CCC3)C[C@]2(C(=O)O)C1
The Z score of the first is higher: 1.22 for the first, 0.15 for the second.

First: Cc1nccc(N2CC[C@H]3[C@H](CCC(=O)N3CCc3cccs3)C2)n1
Second: Cc1nc(N2CCNC(=O)[C@@H]2CC2CCCCC2)ccc1C#N
The Z score of the first is higher: 3.04 for the first, 1.43 for the second.

Going from CCC1(CNC(=O)c2cccc(OCc3noc(C)n3)c2)CCCC1 to Cn1nccc1CNC(=O)NC1(Cc2ccccc2)CCCC1, the Z score falls from 2.02 to -0.04.

Compared with O=c1ccn2c(n1)O[C@H]1[C@H](OC3CCCCO3)[C@@H](COC3CCCCO3)O[C@H]12 (stereo not given in full), Cn1ncnc1CCNC(=O)NC(C1CCCC1)C1CCCC1 is lower in Z score: -4.46 for the first, -4.68 for the second.

First: Cc1cc(C)nc(CN(C)C(=O)c2cn(C)c(C)cc2=O)c1
Second: CCOc1cc(-c2c(C)c(-c3cnn(C)c3)nc(N)c2C#N)ccc1O
The Z score of the first is lower: 1.2 for the first, 1.24 for the second.

First: Cc1ccc(-c2ccc(F)cn2)c2cccnc12
Second: Cc1cccc(C[C@H](C)Nc2ncnc3[nH]cnc23)n1
The Z score of the first is higher: 0.49 for the first, -0.23 for the second.

Compared with CCn1cc(C2OCCC2CNCc2csc(COC)n2)cn1 (stereo not given), COCCn1cncc1CNc1nc(C)nc2ccsc12 is lower in Z score: 1.31 for the first, 0.81 for the second.

Compared with O=C1OCCC1NC(c1ccccc1)C1CCC1 (stereo not given), CCOC(=O)[C@@]1(CCOc2ccccc2)CCCN(C2CCN(C)CC2)C1 is higher in Z score: 1.29 for the first, 1.69 for the second.

Cc1nn(C)c(C)c1CN1CCC(CC2CC2)(c2noc(C3CCOCC3)n2)CC1 showed a Z score of 0.85.
